These are literature values, as cited in publication PMC11006913.

Some of the results follow.

The target of data set [1] is PROP1 R112Q (Homo sapiens) (UniProt O75360). Conditions: PBM; conditions not shown; double strand, one strand shown; scale: upbm affinity estimate (log intensity, higher = more binding, comparable within an allelic series).
Data set [2] deals with PROP1 R99Q (Homo sapiens) (UniProt O75360). Conditions: PBM; conditions not shown; double strand, one strand shown; scale: upbm affinity estimate (log intensity, higher = more binding, comparable within an allelic series).

With GCGTCCCA [8-mer GCGTCCCA], the figures for the binding signal in data set [1] and in data set [2] were 10.8 and 10.9, respectively.

Consider CCCGGCAC [8-mer CCCGGCAC], for which the binding signal in data set [1] is 10.8; in data set [2], 10.9.

In the case of CATAACTA [8-mer CATAACTA], the binding signal in data set [1] was 11.8; in data set [2] it was 11.6.

As to GCCTCCAC [8-mer GCCTCCAC], the binding signal in data set [1] and in data set [2] was 10.9 throughout.

As to CCCGAGCC [8-mer CCCGAGCC], the binding signal in data set [1] and in data set [2] was 11 in each case.

With CCCGGGAC [8-mer CCCGGGAC], the binding signal was 10.9 in data set [1] and 11 in data set [2].

CCGGCGGC [8-mer CCGGCGGC]: the binding signal in data set [1] and in data set [2] was 10.8 throughout.

For AGGACCGC [8-mer AGGACCGC], the binding signal in data set [1] and in data set [2] was 11 in each case.

Take CTCAGGCC [8-mer CTCAGGCC]: the binding signal in data set [1] is 10.8; in data set [2], 10.9.

On to AGGGGTTC [8-mer AGGGGTTC], for which the binding signal is 10.8 in data set [1] and 10.9 in data set [2].

Take GGGACGAA [8-mer GGGACGAA]: the binding signal in data set [1] and in data set [2] was 11 throughout.

Take CCGCAAGG [8-mer CCGCAAGG]: the results for the binding signal in data set [1] and in data set [2] were 10.9 and 11, respectively.

Regarding AATTGAAT [8-mer AATTGAAT], the results for the binding signal in data set [1] and in data set [2] were 12.5 and 12, respectively.

In the case of CCCCCGTA [8-mer CCCCCGTA], the binding signal in data set [1] and in data set [2] was 10.9 in each case.

In the case of AATTGGAC [8-mer AATTGGAC], the binding signal is 12.3 in data set [1] and 11.8 in data set [2].

For CAGGCGCC [8-mer CAGGCGCC], the binding signal in data set [1] is 10.9; in data set [2], 11.

Turning to CGCCCGCC [8-mer CGCCCGCC], the binding signal in data set [1] is 10.6; in data set [2] it was 10.9.

As to CCCGTCGG [8-mer CCCGTCGG], the binding signal in data set [1] and in data set [2] was 10.9 each time.

As for CCGGCCCG [8-mer CCGGCCCG], the binding signal in data set [1] and in data set [2] was 10.8 throughout.

As for CGGCGTGC [8-mer CGGCGTGC], the binding signal in data set [1] is 10.8; in data set [2] it was 10.9.

On to GCCCACGA [8-mer GCCCACGA], for which the binding signal in data set [1] and in data set [2] was 10.9 each time.

For AAATTATC [8-mer AAATTATC], the binding signal in data set [1] was 12.3; in data set [2], 11.8.

As to CGGGCCCA [8-mer CGGGCCCA], the binding signal in data set [1] and in data set [2] was 10.9 throughout.

Consider CCAGCCGC [8-mer CCAGCCGC], for which the binding signal in data set [1] and in data set [2] was 10.9 in each case.

For CCTGAAGG [8-mer CCTGAAGG], the figures for the binding signal in data set [1] and in data set [2] were 10.9 and 11, respectively.

Turning to GCCCCCGA [8-mer GCCCCCGA], the binding signal in data set [1] and in data set [2] was 10.9 in each case.

AAGCCCGG [8-mer AAGCCCGG]: the binding signal in data set [1] and in data set [2] was 11 in each case.

AATCAAAT [8-mer AATCAAAT]: the binding signal in data set [1] was 12.4; in data set [2], 11.8.

Consider CCCCTCGC [8-mer CCCCTCGC], for which the binding signal in data set [1] and in data set [2] was 10.9 throughout.

Take CCCCGGCC [8-mer CCCCGGCC]: the values for the binding signal in data set [1] and in data set [2] were 10.9 and 11, respectively.

Take CCGCCGGA [8-mer CCGCCGGA]: the values for the binding signal in data set [1] and in data set [2] were 10.8 and 10.9, respectively.

Consider AGTCGCCC [8-mer AGTCGCCC], for which the binding signal in data set [1] and in data set [2] was 11 throughout.

For CGGGTGAC [8-mer CGGGTGAC], the binding signal in data set [1] and in data set [2] was 10.9 throughout.

As to CGGGCCTC [8-mer CGGGCCTC], the binding signal in data set [1] and in data set [2] was 10.8 each time.

For the sequence AGCGCTTG [8-mer AGCGCTTG], the values for the binding signal in data set [1] and in data set [2] were 10.9 and 11.1, respectively.

On to CGAGAGGC [8-mer CGAGAGGC], for which the binding signal in data set [1] and in data set [2] was 10.9 each time.

Turning to TAATTTGA [8-mer TAATTTGA], the binding signal in data set [1] is 12.5; in data set [2], 11.8.

For the sequence AATTGGAT [8-mer AATTGGAT], the binding signal in data set [1] is 12.6; in data set [2], 12.

As for CCCCCGGC [8-mer CCCCCGGC], the binding signal in data set [1] and in data set [2] was 10.8 throughout.

As to TCCATTAA [8-mer TCCATTAA], the binding signal in data set [1] was 12.1; in data set [2], 11.8.

For the sequence AATCTAAT [8-mer AATCTAAT], the binding signal in data set [1] was 12.4; in data set [2] it was 11.9.

As for AGGGCAGG [8-mer AGGGCAGG], the binding signal in data set [1] and in data set [2] was 11 each time.

Consider CGCACGCC [8-mer CGCACGCC], for which the binding signal in data set [1] and in data set [2] was 10.8 throughout.

Regarding CCAGGCGA [8-mer CCAGGCGA], the binding signal in data set [1] and in data set [2] was 10.8 throughout.

Regarding GCGGTGCC [8-mer GCGGTGCC], the binding signal in data set [1] and in data set [2] was 10.9 throughout.

CTGGCCCC [8-mer CTGGCCCC]: the binding signal in data set [1] is 10.8; in data set [2], 10.9.

As for CGACGGCC [8-mer CGACGGCC], the binding signal in data set [1] and in data set [2] was 10.9 throughout.

In the case of CGGCGGCC [8-mer CGGCGGCC], the binding signal in data set [1] and in data set [2] was 10.8 throughout.

Turning to GCCCTCGA [8-mer GCCCTCGA], the binding signal in data set [1] and in data set [2] was 10.9 each time.

Consider CGGCCGTC [8-mer CGGCCGTC], for which the binding signal in data set [1] and in data set [2] was 11 throughout.

Turning to CCAAAAGC [8-mer CCAAAAGC], the binding signal in data set [1] and in data set [2] was 10.9 each time.

In the case of GCGCCGGA [8-mer GCGCCGGA], the values for the binding signal in data set [1] and in data set [2] were 10.8 and 10.9, respectively.

Turning to GGAGCCGA [8-mer GGAGCCGA], the binding signal in data set [1] and in data set [2] was 10.9 in each case.

For CGCAAGCG [8-mer CGCAAGCG], the binding signal is 10.9 in data set [1] and 11 in data set [2].

Take CGCTCTCC [8-mer CGCTCTCC]: the binding signal in data set [1] was 10.9; in data set [2], 10.8.

As to CCCTTGCG [8-mer CCCTTGCG], the binding signal in data set [1] is 10.8; in data set [2], 10.9.

For the sequence CCCTAGCG [8-mer CCCTAGCG], the results for the binding signal in data set [1] and in data set [2] were 10.7 and 10.9, respectively.

Regarding GGCAGGCC [8-mer GGCAGGCC], the binding signal in data set [1] and in data set [2] was 10.8 throughout.

Consider ACCCCCCC [8-mer ACCCCCCC], for which the binding signal in data set [1] was 10.8; in data set [2], 10.9.

On to AATTACCG [8-mer AATTACCG], for which the binding signal in data set [2] is 12.1.

On to CGGCTCCC [8-mer CGGCTCCC], for which the binding signal is 10.9 in data set [1] and 11 in data set [2].

Consider AGGGAAAC [8-mer AGGGAAAC], for which the binding signal in data set [1] and in data set [2] was 10.9 throughout.
